The values that follow come from the antibiotic and cytotoxicity screens of Wong et al. (2023).

Assay [1] concerns HSkMC (human skeletal muscle cells). As to the kind of experiment: cytotoxicity call (relative viability < 0.9). Conditions: 10 µM.
Assay [2] has as its system HepG2. Description: cytotoxicity call (relative viability < 0.9). Conditions: 10 µM.
Assay [3] deals with S. aureus RN4220. Description: growth inhibition call (relative growth <= 0.2). The settings on record: 50 µM.

The list shows a part of the results.

For the compound `COc1ccc(S(=O)(=O)Nc2ccc3c(c2)CC(=O)N([C@H](C)CO)C[C@H](C)[C@@H](CN(C)S(=O)(=O)c2ccc(F)cc2)O3)cc1`, the cytotoxicity call in assay [1] and in assay [2] was “inactive” in each case. Also, in assay [3], the growth inhibition call was “inactive”.

Turning to `C[C@H]1CN([C@@H](C)CO)C(=O)c2cc(Br)cnc2O[C@@H]1CN(C)S(=O)(=O)c1ccc(F)cc1`, the cytotoxicity call in assay [1] and in assay [2] was “inactive” each time. Also, the growth inhibition call in assay [3] was “inactive”.

Consider `C[C@H](CO)N1C[C@H](C)[C@@H](CN(C)C(=O)C2CCCCC2)OCCCC[C@H](C)Oc2ccc(NS(=O)(=O)c3cccs3)cc2C1=O`, for which the cytotoxicity call in assay [1] and in assay [2] was “inactive” throughout. For the same compound, the growth inhibition call in assay [3] was “inactive”.

With `C[C@@H]1CCCCO[C@H](CN(C)S(=O)(=O)c2ccc(F)cc2)[C@@H](C)CN([C@@H](C)CO)C(=O)c2cc(NC(=O)c3ccccc3)ccc2O1`, the cytotoxicity call in assay [1] and in assay [2] was “inactive” throughout. Besides, the growth inhibition call in assay [3] was “inactive”.

For the compound `Cn1nnc2cc(C(=O)NC3CC3)ccc21`, the cytotoxicity call in assay [1] and in assay [2] was “inactive” in each case. In addition, the growth inhibition call in assay [3] is “inactive”.

Regarding `O=C(C[C@@H]1CC[C@@H]2[C@H](COC[C@H](O)CN2C(=O)c2ccc(F)cc2)O1)NCCCN1CCOCC1`, the cytotoxicity call in assay [1] and in assay [2] was “inactive” each time. The growth inhibition call in assay [3] is “inactive”.

In the case of `COCC#Cc1ccc([C@H]2[C@@H](CO)N3C(=O)CN(C(=O)c4cccnc4)C[C@@H]23)cc1`, the cytotoxicity call in assay [1] and in assay [2] was “inactive” in each case. In assay [3], the growth inhibition call is “inactive”.

For the compound `COCC(=O)N(C)C[C@H]1Oc2cc(C#CC(C)(C)O)ccc2S(=O)(=O)N([C@@H](C)CO)C[C@H]1C`, the cytotoxicity call in assay [1] and in assay [2] was “inactive” throughout. In addition, the growth inhibition call in assay [3] was “inactive”.

As to `COC(=O)c1cc(S(C)(=O)=O)ccc1OC`, the cytotoxicity call in assay [1] and in assay [2] was “inactive” in each case. Besides, the growth inhibition call in assay [3] was “inactive”.

`COc1ccc(-c2cc(=O)c3c(O)cc(OC4OC(COC5OC(C)C(O)C(O)C5O)C(O)C(O)C4O)cc3o2)cc1O` (centres undefined): the cytotoxicity call in assay [1] and in assay [2] was “inactive” each time. Besides, the growth inhibition call in assay [3] is “inactive”.

As to `C[C@@H]1CCCCO[C@@H](CN(C)C(=O)NC2CCCCC2)[C@@H](C)CN([C@H](C)CO)C(=O)c2cc(NC(=O)c3ccccc3)ccc2O1`, the cytotoxicity call in assay [1] and in assay [2] was “inactive” in each case. The growth inhibition call in assay [3] was “inactive”.

Consider `CC(C)NC(=O)N(C)C[C@H]1OCCCC[C@H](C)Oc2ccc(NC(=O)C3CCCCC3)cc2C(=O)N([C@@H](C)CO)C[C@@H]1C`, for which the cytotoxicity call in assay [1] and in assay [2] was “inactive” in each case. Moreover, the growth inhibition call in assay [3] was “inactive”.

Consider `C[C@H]1[C@H]([Si](C)(C)F)[C@@H](CCn2cc([C@H](O)c3ccccc3)nn2)O[C@]12C(=O)N(c1ccccc1)c1ccccc12`, for which the cytotoxicity call in assay [1] and in assay [2] was “inactive” each time. Moreover, in assay [3], the growth inhibition call was “inactive”.

With `C[C@H]1CN([C@@H](C)CO)C(=O)c2cccc(NC(=O)CCCCCC(=O)Nc3ccccc3N)c2O[C@@H]1CN(C)Cc1ccccc1`, the cytotoxicity call in assay [1] is “active”. The cytotoxicity call in assay [2] is “inactive”. Besides, the growth inhibition call in assay [3] is “inactive”.

As to `C[C@@H]1CCCCO[C@@H](CN(C)S(=O)(=O)c2ccc(Cl)cc2)[C@@H](C)CN([C@@H](C)CO)C(=O)c2cc(NS(=O)(=O)c3ccc(F)cc3)ccc2O1`, the cytotoxicity call in assay [1] is “inactive”. Further, the cytotoxicity call in assay [2] is “active”. Moreover, the growth inhibition call in assay [3] was “inactive”.

Consider `COc1ccc(NC(=O)N(C)C[C@H]2Oc3c(NC(=O)c4cnccn4)cccc3C(=O)N([C@@H](C)CO)C[C@@H]2C)cc1`, for which the cytotoxicity call in assay [1] and in assay [2] was “inactive” in each case. Also, the growth inhibition call in assay [3] was “inactive”.

For the compound `C[C@@H]1CN([C@@H](C)CO)C(=O)c2cccc(NC(=O)c3nc4ccccc4s3)c2O[C@@H]1CN(C)C(=O)Nc1cccc2ccccc12`, the cytotoxicity call in assay [1] and in assay [2] was “inactive” each time. Further, the growth inhibition call in assay [3] was “inactive”.

In the case of `COC(=O)[C@H](Cc1ccc(-n2cc(CCC(=O)NO)nn2)cc1)N1CC2=C[C@H]([C@@H](O)Cc3ccccc3)n3c(=O)n(C)c(=O)n3[C@@H]2[C@@H](C2CC2)O1`, the cytotoxicity call in assay [1] and in assay [2] was “inactive” each time. Further, the growth inhibition call in assay [3] was “inactive”.

Turning to `Cc1noc(C)c1NC(=O)Nc1ccc2c(c1)C(=O)N([C@@H](C)CO)C[C@@H](C)[C@H](CN(C)Cc1ccc(Cl)c(Cl)c1)O2`, the cytotoxicity call in assay [1] and in assay [2] was “inactive” each time. In addition, the growth inhibition call in assay [3] is “inactive”.

As for `COC(=O)c1cn(CCNC(=O)[C@@H](NS(=O)(=O)c2ccc(C)cc2)C(C)C)nn1`, the cytotoxicity call in assay [1] and in assay [2] was “inactive” in each case. In addition, in assay [3], the growth inhibition call is “inactive”.

Regarding `C[C@@H]1CCCCO[C@H](CN(C)S(=O)(=O)c2cn(C)cn2)[C@@H](C)CN([C@@H](C)CO)C(=O)c2cc(N(C)C)ccc2O1`, the cytotoxicity call in assay [1] and in assay [2] was “inactive” in each case. For the same compound, in assay [3], the growth inhibition call is “inactive”.

Take `C[C@@H]1CCCCO[C@@H](CN(C)C(=O)c2ccccc2)[C@@H](C)CN([C@@H](C)CO)C(=O)c2cc(NS(=O)(=O)c3cccs3)ccc2O1`: the cytotoxicity call in assay [1] and in assay [2] was “inactive” each time. Besides, in assay [3], the growth inhibition call was “inactive”.

Take `C[C@H]1CN([C@@H](C)CO)C(=O)Cc2cc(NS(C)(=O)=O)ccc2O[C@H]1CN(C)S(=O)(=O)c1cccs1`: the cytotoxicity call in assay [1] and in assay [2] was “inactive” each time. In assay [3], the growth inhibition call was “inactive”.

Take `Cc1ccc(S(=O)(=O)N2CCN(CC(=O)N/N=C/c3ccccn3)CC2)cc1`: the cytotoxicity call in assay [1] and in assay [2] was “inactive” each time. Further, in assay [3], the growth inhibition call is “inactive”.

Take `C[C@H](CO)N1C[C@H](C)[C@H](CN(C)S(=O)(=O)c2ccc(C#N)cc2)Oc2ncc(-c3ccc(F)cc3)cc2C1=O`: the cytotoxicity call in assay [1] and in assay [2] was “inactive” each time. Also, the growth inhibition call in assay [3] is “inactive”.

For the compound `O=C(CSc1nnc[nH]1)C1CC1`, the cytotoxicity call in assay [1] and in assay [2] was “inactive” throughout. Further, the growth inhibition call in assay [3] was “inactive”.

Consider `O=C(C[C@@H]1CC[C@@H]2NC[C@@H](O)COC[C@H]2O1)NCCN1CCCCC1`, for which the cytotoxicity call in assay [1] and in assay [2] was “inactive” in each case. For the same compound, the growth inhibition call in assay [3] is “inactive”.

`C[C@@H]1CCCCO[C@H](CN(C)CC2CCCCC2)[C@H](C)CN([C@@H](C)CO)C(=O)c2cc(NC(=O)Nc3ccc4c(c3)OCO4)ccc2O1`: in assay [1], the cytotoxicity call was “inactive”. Besides, the cytotoxicity call in assay [2] is “active”. In addition, the growth inhibition call in assay [3] was “inactive”.
